Hit rate of the full screen: of about 310,000 compounds, about 2,200 (0.71%) showed an effect of 50% or more. Effects have a minus sign here. The list shows a part of the results.
target: human ether-à-go-go-related gene (hERG) potassium channel (human, UniProt Q12809); test: primary screen, population patch clamp on CHO cells stably expressing hERG
Sequence (Q12809 whole entry, looked up): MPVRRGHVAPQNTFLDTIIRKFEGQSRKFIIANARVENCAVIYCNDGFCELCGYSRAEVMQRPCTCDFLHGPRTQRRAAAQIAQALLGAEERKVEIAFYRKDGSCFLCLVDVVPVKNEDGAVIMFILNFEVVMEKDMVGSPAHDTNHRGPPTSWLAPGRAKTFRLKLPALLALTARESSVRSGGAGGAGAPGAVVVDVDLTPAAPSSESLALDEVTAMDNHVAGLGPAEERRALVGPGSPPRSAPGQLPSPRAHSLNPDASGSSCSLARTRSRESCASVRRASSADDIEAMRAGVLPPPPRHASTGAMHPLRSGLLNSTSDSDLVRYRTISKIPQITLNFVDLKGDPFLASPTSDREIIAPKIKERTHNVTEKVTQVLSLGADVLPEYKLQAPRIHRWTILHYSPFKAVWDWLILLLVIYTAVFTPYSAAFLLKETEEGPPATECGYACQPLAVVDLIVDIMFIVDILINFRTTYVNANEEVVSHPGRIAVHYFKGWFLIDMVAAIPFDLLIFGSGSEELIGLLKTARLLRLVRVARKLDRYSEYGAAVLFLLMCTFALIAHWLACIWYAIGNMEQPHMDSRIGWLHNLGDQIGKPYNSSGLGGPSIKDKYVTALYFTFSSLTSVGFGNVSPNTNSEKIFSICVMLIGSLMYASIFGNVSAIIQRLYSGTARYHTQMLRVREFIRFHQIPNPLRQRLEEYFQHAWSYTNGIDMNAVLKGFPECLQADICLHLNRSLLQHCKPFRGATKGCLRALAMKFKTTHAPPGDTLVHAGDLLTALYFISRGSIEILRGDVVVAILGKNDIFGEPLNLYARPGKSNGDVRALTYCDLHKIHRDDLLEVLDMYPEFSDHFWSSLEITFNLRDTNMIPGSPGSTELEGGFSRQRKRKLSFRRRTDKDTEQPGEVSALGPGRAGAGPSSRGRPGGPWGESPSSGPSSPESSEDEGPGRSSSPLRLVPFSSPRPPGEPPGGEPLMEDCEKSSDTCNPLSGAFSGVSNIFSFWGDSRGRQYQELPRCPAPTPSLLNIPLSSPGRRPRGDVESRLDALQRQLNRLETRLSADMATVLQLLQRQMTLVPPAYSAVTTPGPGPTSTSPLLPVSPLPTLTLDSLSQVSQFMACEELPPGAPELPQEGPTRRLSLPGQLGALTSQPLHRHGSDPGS

SMILES | hERG current change (%, negative = inhibition) at 1uM [%]
CCCN(CC(=O)Nc1ccccc1C)C(=O)C1CCN(S(=O)(=O)c2cccc(C(F)(F)F)c2)CC1 | 11.4
CCOC(=O)N/N=C/c1cn(CCCOc2ccccc2)c2ccccc12 | 20.2
CCOC(=O)c1ccc(N2Cc3ccccc3C2=NC(=O)c2cccc([N+](=O)[O-])c2)cc1 | -3.28
CCC(C)CCN1C(Nc2ccccc2)=NC[C@@H]1Cc1ccccc1 (stereo partly drawn) | -17.5
CCOC(=O)c1c(NC(C)=O)sc2c(OC(C)=O)cccc12 | 17.5
CCOC(=O)C1CCCN(C(=O)C(=O)c2cn(CC(=O)N3CCOCC3)c3ccccc23)C1 (stereo not drawn) | -3.27
COC(=O)c1ccc(Cn2nc(C)cc2C)cc1 | 17.4
O=C(CC1SC(=O)N(c2ccccc2)C1=O)Nc1ccc(Br)cc1 (stereo not drawn) | 11.5
CC1CCC(=O)N(CCSc2ccccc2)CC1 (stereo not drawn) | 9.47
Cc1ccc(OCC(=O)N(Cc2ccco2)C2CCS(=O)(=O)C2)cc1C (stereo not drawn) | -9.82
COc1ccc2c(c1)O/C(=C\c1ccccc1C)C2=O | 11.9
CCOC(=O)Cc1csc(NC(=O)c2ccc([N+](=O)[O-])cc2[N+](=O)[O-])n1 | 13.7
COc1cccc(C2=CC(=O)CC(c3ccco3)C2)c1 (stereo not drawn) | 15.7
Cc1ccccc1NC(=O)Cn1cc(C(=O)C2CC2)c2ccccc21 | 12
COc1ccc(S(=O)(=O)N(C)CC(=O)Nc2ccccc2SC)cc1Cl | 11.6
COc1ccccc1N1CCN(C(=O)C(=O)c2c(C)n(C)c3ccccc23)CC1 | -0.112
Cc1cccc(NC(=O)CSCC(=O)N2CCN(c3cccc(C(F)(F)F)c3)CC2)c1 | 2.24
CCN(CC(=O)Nc1ccccc1C(F)(F)F)C(=O)c1cccc(N2C(=O)CCC2=O)c1 | 1.61
CCOc1ccccc1/C=N/n1nnnc1N | 14.2

SMILES | hERG current change (%, negative = inhibition) at 1uM [%]
Cc1ccc(O)c(N=Nc2ccc(S(=O)(=O)N3CCCC3)cc2)c1 | 16.6
CCOC(=O)C1C(=O)NC(N2CCN(Cc3ccccc3)CC2)=NC1c1ccccc1 (stereo not drawn) | -3.77
CCOC(=O)C(NC(=O)Nc1cccc(C)n1)(OCC(F)(F)F)C(F)(F)F (stereo not drawn) | 1.04
COc1cccc2c(=O)c3cccc(N)c3[nH]c12 | 13.3
CC(=O)c1ccc(Sc2ccccc2N)c([N+](=O)[O-])c1 | 12.4
COc1ccc(CN2[C@@H](CC(C)=O)c3cc(C(F)(F)F)ccc3S2(=O)=O)cc1 | 10.6
Brc1ccc2ncnc(NCc3ccco3)c2c1 | 0.0379
Cc1ccc(/C=C/C(=O)N2CCCC(C(N)=O)C2)o1 (stereo not drawn) | -0.805
CC(C)NC(=S)N1CCN(c2ncccn2)CC1 | 1.92
COc1ccc2c(c1)c(C(O)CN1CCC(Cc3ccccc3)CC1)c(C)n2C (stereo not drawn) | -37.2
COc1ccc(NC(=O)N(Cc2cc3cc(C)ccc3[nH]c2=O)CC2CCCO2)cc1 (stereo not drawn) | 10.5
O=C(Cc1ccc(S(=O)(=O)N2CCOCC2)s1)NC1CCCCC1 | -17.1
COc1cc2cnc(-c3ccccc3)c(-c3cccc(C(F)(F)F)c3)c2cc1OC | 16.3
Cc1cc(C)n(C(=O)c2ccc(Cn3nc(C)c(Br)c3C)o2)n1 | -6.69
N#Cc1c(NC(=O)c2cc(C3CC3)on2)sc2c1CCC2 | 12
CCOC(=O)c1c(C)[nH]c(C(=O)OC(C)C(=O)Nc2ccccc2OC)c1C (stereo not drawn) | 5.43
Cc1[nH]nc2c1C(c1ccc(Cl)cc1)C(C#N)=C(N)O2 (stereo not drawn) | 9.67
Cn1c(NC(=O)c2cccc(Cn3cc(Cl)cn3)c2)nc2ccccc21 | 9.95
Cc1cc(C)nc(N/N=C/C2=C(O)CC(c3ccc(F)cc3)CC2=O)n1 (stereo not drawn) | 12.2

SMILES | hERG current change (%, negative = inhibition) at 1uM [%]
CC(=O)N1CCc2ccc(S(=O)(=O)Nc3ccccc3Cl)cc21 | 1.81
CCC1CCCCN1CCCNC(=O)CN1C(=O)c2cccnc2Oc2ccc(Cl)cc21 (stereo not drawn) | 10.2
CCCOc1ccccc1/C=N/Nc1ccnc(=O)[nH]1 | 6.42
COc1ccccc1/C=C/C(=O)NCCc1ccccn1 | 21.6
OC1(CN2CCOCC2)C2CN3CCN(C2)CC1(c1ccccc1)C3 (stereo not drawn) | -1.06
CC(CC(=O)O)CC(=O)Nc1ccc(Br)cc1 (stereo not drawn) | 11.9
C=CCOc1ccccc1CNCCNC(=O)c1nonc1N.Cl | 0.597
CC(=O)NC1(C(F)(F)F)C(=O)Nc2c1c(=O)[nH]c(=O)n2CC(C)C (stereo not drawn) | 11.5
O=C(CNC(=O)c1ccc(Cl)cc1)NCC(F)(F)F | 11.1
FC(F)(F)c1nnc2sc(-c3cccs3)nn12 | 3.44
Cc1ccc(C(=O)O)cc1-n1c(=O)n(Cc2ccccc2)c(=O)c2[nH]cnc21 | 11.5
Cc1cccn2c(=O)c3cc(C(=O)N4CCC5(CC4)OCCO5)n(C)c3nc12 | -9.7
CCNC(=O)NC(=O)CSc1nc2ccccc2n1CC(C)C | -3.13
O=C(c1ccco1)N1CCN(Cc2nc3ccc([N+](=O)[O-])cc3c(=O)n2-c2ccccc2F)CC1 | -39.3
Cc1ccc(C(=O)COC(=O)c2c(C)cc(=O)oc2C)cc1[N+](=O)[O-] | 5.38
CCCn1nc(Oc2nc(SC)nc(N(C)C)n2)ccc1=O | -6.02
CN(C)S(=O)(=O)c1cccc(C(=O)Nc2cc3c(cc2C(=O)O)OCCCO3)c1 | 9.57
O=C(NCc1ccc2c(c1)OCO2)C1CCC(=O)N1C1CCCCC1 (stereo not drawn) | -4.01
CCOc1ccc2[nH]c(=O)c(=O)[nH]c2c1 | -0.103
